Source: the supplement of paper PMC10126150
Sequences with one replicate were seen in a single cluster, so their values are uncertain.

System: ATP
Assay: switch fluorescence ratio, 500 uM ATP over buffer (Cy3 cluster intensity, sum of 5 cycles each) (fold (ratio)); higher = stronger signal-on switching upon ATP binding; sequences stand for … in TCGTCGGCAGCGTCAGATGTGTATAAGAGACAGTTTTTTTTTTTTTTTTTTTTTTTTT…TC
Conditions: aptamer strand: ATP DNA aptamer (quencher-CACCTGGGGGAGTATTGCGGAGGAAGG + anchor), 100 nM annealed; ATP concentration: 500 uM; one replicate
Method in brief: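 Per cluster, summed Cy3 intensity from the target cycles was divided by that from the buffer cycles to give the fluorescence ratio, then averaged per switch-domain sequence. Clusters outside 100-1000 RFU were excluded. The Cy3-labelled switching-strand clusters, on a modified Illumina MiSeq flow-cell, were annealed to 100 nM quencher-labelled ATP aptamer and imaged in selection buffer, then after 15 min with 500 uM ATP at 22 °C, for five cycles with NaOH stripping and re-annealing between them.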
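Further: ATP exposure 15 min at 22 °C before imaging.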

Sequence | switch fluorescence ratio
GCTAAGTATC | 1.02
CCCCCGGTCA | 1.26
AACTTTAATT | 0.983
GCACGTATAC | 2.3
AATCGATTGA | 0.971
AGGGCATCAT | 0.969
GACCGGCACG | 1.07
ATTGGTTTTG | 0.96
GGGATGCACG | 0.939
TTGTGATAGG | 0.984
TCCAGCTGC | 1.18
ATACAGGGGT | 1.15
GGTCCTTGTG | 0.985
TGTCACCTAA | 1.08
GATCCTCAGA | 0.936
GCTGCATTCC | 1.44
TCAAGAGTAG | 0.997
TAGGTGTTAC | 1.04
AACATAACAG | 1.02
TTTCTGGCAC | 1.04
TTAAATGGAT | 1.03
AGACTCTGCG | 1.01
GCTAGGTCTG | 0.972

Sequence | switch fluorescence ratio
ATGATACAAA | 1.07
CTGTGCAGCA | 1.06
CAGCATCTCT | 1.15
CATGTGCCTG | 0.938
TGATACCTCG | 1.04
ATCAGCTTAT | 2.5
TGGTGTGAAC | 1
AGGGAATCAC | 1.06
GTAAGGGTAC | 1.02
ACAGGATCAT | 1.04
AAGTGAGGGA | 0.978
TAGGGTCTTC | 1.02
GCCACTTGAG | 1.02
ATACCCTAT | 1.01
CACTACGGTA | 1.19
CGTGGGAGCA | 0.964
ATTTGCCTTT | 1.05
ACCCGTTGCA | 1.04
TGGGGATTCA | 1.02
CCCATATAAC | 1.26
AGAACCTTGG | 1.02
CGACATACGT | 1.46
TTTTGCCCTG | 1.05

Sequence | switch fluorescence ratio
AAGGCTCTGG | 0.985
TGGCCCCTGG | 1.06
TTCCCCTGAC | 1.67
GCGGGGGAGA | 1.04
GGACTCGTTC | 0.953
TGACCTGGGC | 1.03
CGGGATATCC | 1.03
GCCCCGTTAC | 3.18
CTGGTATGCT | 0.976
GATGCAACTG | 1.08
TCCTGATTA | 1.03
CTAAAGGGCG | 1.03
AATAGCGAGC | 0.974
TCCGGCCAG | 1.09
ATACAACTGT | 1.09
TAACACATAT | 1.07
AACACTCTGT | 1
CCACGGATCT | 1
TACTCGAGAT | 1.05
AAATACGCCG | 1.02
CGTGGCTCTG | 0.999
ACAGCCTATG | 0.937
AGATCCGGCA | 0.996

Sequence | switch fluorescence ratio
TCAAGAGGCA | 1.01
AGATCGAAAC | 1.03
CTCATTATAC | 1.97
GTGCTCCCGG | 1.19
ATCCCCGTCC | 1.25
TATTGGCTGT | 0.973
AGAGTGGCTA | 1.01
GCCTGCTTGG | 0.974
CTAATGCGCC | 1.01
GGCGAAAATG | 0.996
TAATTATCGT | 1.01
TAGTGTTATT | 0.998
GGTGCGGTGG | 0.992
GTTCGTAATA | 1.44
CAGGACGGTG | 0.98
TAGTACTTCG | 1.03
TAGAGGTTGT | 0.978
TTTAAATGGC | 0.984
GCTCTATCAA | 1.13
GTTCTTGCAG | 1.01
CCGATTAGAG | 1.05
TAGATCGGCT | 1.06
GCGGTCCGTG | 0.986

Sequence | switch fluorescence ratio
GAGGAAACCA | 1.08
GGTGCAGAAA | 0.993
GGTTCATCCG | 1.16
TAGTACGGTA | 1.01
GGGACTTTGT | 1.02
AGTCTGTACC | 1.04
CGTACAAATG | 1.01
AGTATATCCT | 1.08
TTTTGCCTAC | 1
AAACGTCGGA | 1.02
GTTGTCGCGA | 1.04
GAATAGCTGG | 0.983
TGGTTGACTA | 0.961
TTTAGATCGC | 1.01
AAACGTAACT | 1.3
TATTACATGA | 1.03
AAAGTTACCT | 0.986
GGCGACGTA | 1.01
ACGATTAGC | 1.05
ACCAGTGCCA | 0.94
CCTATGCCGT | 1.03
GAATGGCTTA | 1.04
TTAATGTC | 1.08

Sequence | switch fluorescence ratio
TCGCCCGAGG | 1.08
CTTAGTATGA | 1.01
ACGGCGGACG | 0.977
TTATGTCGCA | 0.997
GTGGTTGCTC | 1
TGAGTAACAA | 0.992
CAGGCTTAGG | 0.978
GTAGGCGGAT | 0.917
GACGGCGAAG | 0.986
CTGCTTCGTC | 1
TATATAGACG | 0.957
TAAAACTTAT | 1.05
CTGACAATCG | 1.02
TGTCTTGGGA | 0.96
GCAACTGAAC | 1.13
GGTACTCATA | 1.01
ACATTGTCTT | 0.996
TCGAGGATGC | 1.06
GAACGTTATA | 1.14
CGGTGTCGAC | 0.993
ACACTTTGGT | 0.98
CTTTAAGGTC | 0.995
ATCTCAGCAT | 1.92

Sequence | switch fluorescence ratio
CCGAAGGATG | 1
GGGCCAACAG | 0.956
CTGGGACCCA | 1.01
TCTCGACGGT | 1.06
GATTAAACCA | 1.05
CGGTAGTCAA | 1.56
TCCATCCAAC | 1.07
CCACCAACCC | 1.16
AGCGTCACGC | 1.01
TCTAGGGATG | 1.02
TGTGTCTGTG | 0.97
CGTATGCAGC | 1
AAGTAAAAAG | 0.969
GGTCCCTTGC | 1.33
CGGGCCTGTT | 0.982
CATAGAACCC | 0.977
GGCTAATGCA | 0.949
AATCTCGATA | 0.972
AGTGAGACTA | 0.989
